Out of some 44,000 compounds screened, about 340 (0.77%) were called active. Another 5% or so got no clear call; they are omitted. Calls follow the shape of the dose curve; as a rule, active = well fitted inhibition curve with a large enough effect; inconclusive = small, poorly fitted or top-dose-only effect; inactive = flat fitted curve, though single readings scatter. This is one part of the list.
Assay: Acumen qHTS Assay for Inhibitors of the mTORC1 Signaling Pathway in MEF (Tsc2-/-, p53-/-) Cells: Sytravon; also: nearly all actives have a fitted effect of over 50% in size;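 as to activity change, negative = inhibition: plate controls were DMSO for no effect and rapamycin for full effect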
Settings: phospho-rpS6 immunofluorescence/PI, 24 h; series mostly up to 38.3 µM; activity change, negative = inhibition: at the top concentration
How it was run: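 Read-out: phospho-S6 Alexa-488 intensity over PI intensity per well, scored as % active cells using thresholds from rapamycin (7.5 nM) and DMSO controls. Tsc2-/-, p53-/- MEFs exposed to compound for 24 h; PI cell count recorded as viability.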
With `COc1ccc(Cn2c(C(=O)O)c(CNCc3ccc(SC)cc3)c3ccc(OC)cc32)cc1` the Potency was active: 16.5 µM.
For `CC(C)NC(=O)CN1C(=O)CCn2nc(-c3cn(C)c4ccccc34)cc21`, the “activity change, negative = inhibition” value was inactive: -3.92%.
In the case of `Cc1cc(F)ccc1NC(=O)C1CCC(CNS(=O)(=O)c2ccc3c(c2)CCCC(=O)N3)CC1` (stereo not drawn), the “activity change, negative = inhibition” value is reported as inactive: 0.0619%.
With `Cc1ccccc1NC(=O)c1sc2nc3c(cc2c1N)CN(Cc1ccccc1)CC3` the “activity change, negative = inhibition” value was inactive: -17.7%.
In the case of `CCCS(=O)(=O)N1CCC(C(=O)NCCOC)CC1`, the “activity change, negative = inhibition” value is reported as inactive: 9.37%.
With `COc1cccc(N2CCN(C(=O)CN3CCSc4ccccc43)CC2)c1` the “activity change, negative = inhibition” value was inactive: -20%.
For `Cc1ccc(-n2nc(C)c3c(C)cc(=O)n(CC(=O)Nc4cccc(C)c4C)c32)cc1`, the “activity change, negative = inhibition” value was inactive: -8.67%.
In the case of `O=C(Nc1cc2c(cc1C(=O)c1ccccc1Br)OCCO2)c1cccc(Cl)c1`, the “activity change, negative = inhibition” value is reported as inactive: 8.44%.
With `O=C(c1cc2c(=O)oc3ccccc3c2s1)N1CCN(c2ccccc2)CC1` the “activity change, negative = inhibition” value was inactive: 2.83%.
For `COc1ccc(-c2nn(-c3ccccc3)cc2C2NC(=O)NC(C)=C2C(=O)OC(C)C)cc1OC` (stereo not drawn), the “activity change, negative = inhibition” value was inactive: -8.84%.
For `Cc1ccc(-c2noc(-c3nnn(-c4cccc(C(F)(F)F)c4)c3N)n2)cc1`, the “activity change, negative = inhibition” value was inactive: -10.4%.
For `COc1ccc(N2C(=O)CSC23C(=O)N(Cc2cccc(F)c2)c2ccccc23)cc1Cl` (stereo not drawn), the “activity change, negative = inhibition” value was inactive: -3.26%.
With `O=S(=O)(c1ccc2nc(N3CCN(c4ccccc4F)CC3)ccc2c1)N1CCCCC1` the “activity change, negative = inhibition” value was inactive: 0.942%.
For `Cc1nc(-n2nc(C)c(CCC(C)C)c2C)sc1C(=O)Nc1ccc(Cl)cc1`, the “activity change, negative = inhibition” value was inactive: 0.381%.
In the case of `CCOC(=O)c1c(S(=O)(=O)N2CCCC(C(=O)NCc3ccccc3OC)C2)c(C)n(C)c1C` (stereo not drawn), the “activity change, negative = inhibition” value is reported as inactive: 1.41%.
For `CCc1nc(SC)ncc1C(=O)N1CCN(c2cc(C)ccc2C)CC1`, the “activity change, negative = inhibition” value was inactive: -13.7%.
With `Cc1ccc(NC(=O)c2ccc(=O)n(Cc3ccccc3C)c2)c(C)c1` the “activity change, negative = inhibition” value was inactive: 0.557%.
For `Cc1ccc(CN2CCCn3nc(C(=O)NCCc4cccc(C)c4)cc3C2=O)cc1`, the “activity change, negative = inhibition” value was inactive: 1.24%.
With `NC(=O)C1CCN(S(=O)(=O)c2ccc(N3CCCCS3(=O)=O)cc2)CC1` the “activity change, negative = inhibition” value was inactive: 1.04%.
In the case of `COc1cccc(CNC(=O)C2CCCN(c3nc4ccccc4n4cccc34)C2)c1` (stereo not drawn), the “activity change, negative = inhibition” value is reported as inactive: 8.55%.
In the case of `Cc1nn(C)c2c1c(-c1ccccc1)cc(=O)n2CC(=O)NC(C)C`, the “activity change, negative = inhibition” value is reported as inactive: -9.38%.
For `Cc1ccc(CN2CCCn3nc(C(=O)NCCc4ccccc4Cl)cc3C2=O)cc1`, the “activity change, negative = inhibition” value was inactive: -2.13%.
In the case of `COc1ccc(CCNCc2ccc3c(c2)n(C)c(=O)n3C)cc1OC`, the “activity change, negative = inhibition” value is reported as inactive: -4.8%.
With `Cc1ccc(CNC(=O)c2ccc3c(O)c(S(=O)(=O)c4ccc(Cl)cc4)c(=O)[nH]c3c2)cc1` the “activity change, negative = inhibition” value was inactive: -1.89%.
In the case of `Clc1ccc(Nc2c(-c3ccccc3Cl)nc3ccc(Cl)cn23)cc1`, the “activity change, negative = inhibition” value is reported as inactive: -1.25%.
With `Cc1c(C(=O)Nc2ccccc2Cl)oc2ccc(S(=O)(=O)N3CCCCC3)cc12` the “activity change, negative = inhibition” value was inactive: -3.71%.
In the case of `CCCn1c2ccc(F)cc2c2nnc(SCCN(CC)CC)nc21`, the “activity change, negative = inhibition” value is reported as inactive: -2.45%.
For `Cc1ccc(C(=O)Nc2cccc(C(=O)OCc3cc(=O)n4nc(C5CC5)sc4n3)c2)cc1`, the “activity change, negative = inhibition” value was inactive: 0%.
In the case of `CCCOc1ccc(C2CC(=O)Nc3c2c(=O)n(C)c(=O)n3C)cc1OC` (stereo not drawn), the “activity change, negative = inhibition” value is reported as inactive: 5.64%.
For `COCC(C)Nc1ncnc2c1cnn2-c1ccc(C)c(C)c1` (stereo not drawn), the “activity change, negative = inhibition” value was inactive: 4.7%.
In the case of `COc1ccc(-n2nc(C(=O)NCc3ccc(F)cc3Cl)c3c4ccccc4n(C)c3c2=O)cc1Cl`, the “activity change, negative = inhibition” value is reported as inactive: -5.31%.
For `CCOc1ccc(N2CC(NC(=O)C3CC3)CC2=O)cc1` (stereo not drawn), the “activity change, negative = inhibition” value was inactive: -8.09%.
With `CCCCN(CC)CCCNC(=O)Cn1ncc2c3ccccc3n(Cc3ccc(F)cc3)c2c1=O` the “activity change, negative = inhibition” value was inactive: -3.71%.
With `Cc1cccc(C(=O)Oc2c(Sc3ccccc3)c(C)nn2C(C)(C)C)c1` the “activity change, negative = inhibition” value was inactive: 1.98%.
With `Cn1c(=O)c(=O)n(C)c2cc(S(=O)(=O)N3CCN(c4ccccc4)CC3)ccc21` the “activity change, negative = inhibition” value was inactive: -6.8%.
In the case of `CC(NC(=O)c1ccc2c(c1)sc1nc(-c3ccccc3)cn12)C12CC3CC(CC(C3)C1)C2` (stereo not drawn), the “activity change, negative = inhibition” value is reported as inactive: 3.45%.
With `COc1ccc(S(=O)(=O)NCc2nc3nc(C)cc(C)n3n2)cc1OC` the “activity change, negative = inhibition” value was inactive: 4.41%.
With `CCc1nn(CC(=O)Nc2ccc(NC(C)=O)cc2)c(=O)c2cc3sccc3n12` the “activity change, negative = inhibition” value was inactive: 1.41%.
With `COc1ccc(CNC(=O)CSc2c3c(nc4ccc(Cl)cc24)CCCC3)cc1` the “activity change, negative = inhibition” value was inactive: -7.05%.
For `Cc1ccc(S(=O)(=O)N(CCc2ccccc2)CC(=O)Nc2ccc(Br)cc2)cc1`, the “activity change, negative = inhibition” value was inactive: 22.5%.
For `COCCNC(=O)CN1C(=O)c2cccnc2Oc2ccc(Cl)cc21`, the “activity change, negative = inhibition” value was inactive: -0.407%.
With `CCOc1ccc(NC(=O)N2CCN3CCCCC3C2)cc1` (stereo not drawn) the “activity change, negative = inhibition” value was inactive: -6.94%.
For `CCOC(=O)c1ccc(N2C(=O)c3n[nH]c(-c4ccco4)c3C2c2cccc(O)c2)cc1` (stereo not drawn), the “activity change, negative = inhibition” value was inactive: -3.91%.
With `Cc1cccc(NC(=O)c2oc3ccccc3c2NC(=O)Cc2coc3ccc(C(C)C)cc23)c1` the “activity change, negative = inhibition” value was inactive: 1.12%.
In the case of `COc1ccc(-c2nc(CCNC(=O)c3ccc(Br)o3)cs2)cc1`, the “activity change, negative = inhibition” value is reported as inactive: -29.5%.
With `O=[N+]([O-])c1cc(-c2nc(-c3ccccc3)no2)ccc1N1CCOCC1` the “activity change, negative = inhibition” value was inactive: -3.8%.
With `CCOc1ccccc1NC(=O)C1=C(C)Nc2ncnn2C1c1ccc(C)o1` (stereo not drawn) the “activity change, negative = inhibition” value was inactive: 4.24%.
With `CCc1ccccc1NC(=O)Cn1c(SCc2ccc(F)cc2)nc2ccncc21` the “activity change, negative = inhibition” value was inactive: -1.68%.

Source: PubChem BioAssay AID493208 (National Center for Advancing Translational Sciences (NCATS), 2011)
Potency is read from the fitted curve at half-maximal effect.
